Measurements reported in article PMC10907643.
Results are given in words; binding and its absence hold for the method and conditions named. For some assays here: In cells and extracts the contact can be indirect. Some binding calls cover weakened binding; strength is not graded here.

Amino acid sequences for entries named in this document (tags omitted). A change or cut given only in a name is not applied to a line headed by its entry. Chains listed by the source or under a name are the forms on record and can include a tag or linker. Residues count along the entry.
UniProt Q76MJ5, residues 35-926: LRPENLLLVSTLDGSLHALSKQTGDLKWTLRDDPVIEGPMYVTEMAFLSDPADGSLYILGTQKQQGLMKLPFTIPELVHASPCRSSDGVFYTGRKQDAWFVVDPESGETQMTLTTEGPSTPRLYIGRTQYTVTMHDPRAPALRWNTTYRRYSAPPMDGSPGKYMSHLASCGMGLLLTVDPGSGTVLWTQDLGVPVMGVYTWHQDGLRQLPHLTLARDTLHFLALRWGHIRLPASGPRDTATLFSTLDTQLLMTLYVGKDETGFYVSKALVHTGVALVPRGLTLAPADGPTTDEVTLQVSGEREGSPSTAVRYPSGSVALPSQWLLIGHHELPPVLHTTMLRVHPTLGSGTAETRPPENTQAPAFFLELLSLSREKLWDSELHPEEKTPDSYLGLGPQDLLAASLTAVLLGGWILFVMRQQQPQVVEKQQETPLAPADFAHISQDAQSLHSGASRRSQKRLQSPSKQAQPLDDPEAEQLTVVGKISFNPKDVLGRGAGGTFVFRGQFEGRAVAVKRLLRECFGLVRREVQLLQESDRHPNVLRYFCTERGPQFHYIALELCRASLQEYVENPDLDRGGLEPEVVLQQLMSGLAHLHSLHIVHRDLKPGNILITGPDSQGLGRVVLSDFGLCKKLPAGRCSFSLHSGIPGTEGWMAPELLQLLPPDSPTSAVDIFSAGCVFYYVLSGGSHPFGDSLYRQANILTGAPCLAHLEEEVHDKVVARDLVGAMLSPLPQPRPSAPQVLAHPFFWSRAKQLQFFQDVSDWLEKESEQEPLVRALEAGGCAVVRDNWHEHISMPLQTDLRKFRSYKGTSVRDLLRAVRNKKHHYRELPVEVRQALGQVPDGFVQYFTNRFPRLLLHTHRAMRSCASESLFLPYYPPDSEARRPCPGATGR
AGR2 wild type (overexpressed in HEK293T cells) (O95994, residues 21-175): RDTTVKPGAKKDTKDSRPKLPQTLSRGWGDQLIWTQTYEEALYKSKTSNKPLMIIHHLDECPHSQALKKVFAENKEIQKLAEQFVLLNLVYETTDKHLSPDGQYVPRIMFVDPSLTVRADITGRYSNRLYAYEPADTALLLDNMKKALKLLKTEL
AGR2 C81S (O95994, form named): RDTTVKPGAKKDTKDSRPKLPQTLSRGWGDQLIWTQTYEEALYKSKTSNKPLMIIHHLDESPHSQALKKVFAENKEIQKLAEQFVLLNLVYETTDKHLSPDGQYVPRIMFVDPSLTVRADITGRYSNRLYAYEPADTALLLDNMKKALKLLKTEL
AGR2 E60A (O95994, form named): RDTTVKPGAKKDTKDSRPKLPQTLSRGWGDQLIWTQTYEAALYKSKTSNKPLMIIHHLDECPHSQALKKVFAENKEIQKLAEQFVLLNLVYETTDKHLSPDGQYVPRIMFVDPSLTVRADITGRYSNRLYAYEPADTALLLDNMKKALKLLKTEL
AGR2 H117Y (O95994, form named): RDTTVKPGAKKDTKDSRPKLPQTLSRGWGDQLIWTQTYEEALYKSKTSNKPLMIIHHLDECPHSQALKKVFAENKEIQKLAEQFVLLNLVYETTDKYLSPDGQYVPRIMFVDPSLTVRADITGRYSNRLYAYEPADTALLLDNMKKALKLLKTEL
AGR2 K64A (O95994, form named): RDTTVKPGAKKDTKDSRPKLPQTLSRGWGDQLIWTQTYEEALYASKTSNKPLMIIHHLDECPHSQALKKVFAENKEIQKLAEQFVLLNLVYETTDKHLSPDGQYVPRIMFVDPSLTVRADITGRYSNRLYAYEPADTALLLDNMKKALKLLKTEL

How the values were obtained:
[1] = molecular target: IRE1β-Avi (biotinylated by co-expressed BirA) (human) (UniProt Q76MJ5); test: co-IP; competition co-IP: IRE1β-Avi and IRE1β-FLAG in equal molar amounts with BirA, with or without AGR2 (wild type or mutant; ~2.5:1, or 1:1 to ~4:1 AGR2:IRE1β cDNA) in HEK293T; streptavidin beads, E1A buffer, 1 h at 4 °C; blots with anti-AGR2, anti-FLAG and streptavidin
[2] = molecular target: IRE1β-FLAG (doxycycline-inducible, in Calu-1 ERN1-/- cells) (human) (UniProt Q76MJ5); test: SEC; Superose6 Increase 10/300 GL, cleared lysates of Calu-1 ERN1-/- IRE1β-FLAG cells (16 h doxycycline) with AGR2 or control protein; 150 mM NaCl, 25 mM Tris pH 8.0, 0.5 mM dodecylmaltoside, 5 mM β-mercaptoethanol; fractions blotted with anti-FLAG and anti-AGR2
[3] = molecular target: IRE1β-Avi (biotinylated by co-expressed BirA) (human) (UniProt Q76MJ5); test: co-IP; streptavidin-bead precipitation of BirA-biotinylated IRE1α-Avi or IRE1β-Avi from HEK293T lysates co-transfected with AGR2 (~2.5:1 AGR2:IRE1 cDNA); E1A buffer (1% NP-40, 250 mM NaCl, 20 mM HEPES pH 7.9); 1 h at 4 °C; blot for AGR2; BirA omitted as control

Row | Substance | binding [1] | binding [2] | binding [3]
1 | AGR2 C81S (from UniProt O95994 21-175) | no binding | – | –
2 | AGR2 E60A (from UniProt O95994 21-175) | binds | – | –
3 | AGR2 H117Y (from UniProt O95994 21-175) | no binding | – | –
4 | AGR2 K64A (from UniProt O95994 21-175) | binds | – | –
5 | AGR2 wild type (constitutive lentiviral transgene in Calu-1 cells) (from UniProt O95994 21-175) | – | binds | –
6 | AGR2 wild type (overexpressed in HEK293T cells) (from UniProt O95994 21-175) | binds | – | binds
7 | IRE1β-FLAG (transiently expressed in HEK293T cells) (from UniProt Q76MJ5 35-926) | binds | – | –
